Structures are written as SMILES. The campaign covered roughly 150,000 compounds. About 540 (0.36%) showed an effect of 50% or more. Some of the results follow.

The experiment has as its system Plasmodium falciparum. Kind of experiment: Primary screen in NF54 nanoGlo assay, in single point, at 2uM, 72h; a lower Z score goes with more inhibition. It is filed as functional, Erythrocyte. The conditions noted are these: timepoint 72 hour.
Usually % Inhibition stands for the change of the read-out against control, counted positive when it falls. On to `Cc1cnc2c(C(=O)N3CCN(c4nsc5ccccc45)CC3)cnn2c1`, for which the “% Inhibition” value is -3% and the Z score is on record as 0.55.
On to `Cc1nc(N2CCN(C(=O)[C@@H]3CCCN3C(=O)OC(C)(C)C)CC2)cc(C(F)(F)F)n1`, for which the “% Inhibition” value was -11% and the Z score amounted to 1.88.
For `O=C(CN1CCCCCC1)N1CCC[C@H](OCc2noc(-c3ccncc3)n2)C1`, in that order: -7% and 1.29.
For `CCCOCC(=O)Nc1c(OC)ccnc1OC` the same measures were -18% and 3.11.
For `Cc1ccnc(NCCCNc2cccnc2)n1`, the “% Inhibition” value is on record as -4% and the Z score came to 0.78.
For `c1ccc(-c2ccc(CN3CCCC3)cc2)c(CN2CCOCC2)c1`, in that order: -9% and 2.01.
`COc1ccc2cc(NC(=O)c3cc(-c4c(C)nn(C)c4C)[nH]n3)cnc2c1`: the “% Inhibition” value was 41% and the Z score is -7.15.
With `CN(C)CCCOC1CCN(C(=O)c2cnc3[nH]ccc3c2)CC1`, the “% Inhibition” value is on record as 0% and the Z score stood at 0.02.
For `CCCc1cc(N2CCC(NCCCn3ccnc3)CC2)nc(C)n1`, in that order: -6% and 1.15.
`CCN(CC)CCOc1ccccc1-c1[nH]c2ccccc2c1Cc1ccccc1`: the “% Inhibition” value came to 2% and the Z score is -0.39.
For `CCOc1ccccc1Nc1cc(C(=O)OC)nc2c(OC)cccc12`, in that order: 2% and -0.33.
On to `COc1cccc(N[C@@H](CNc2nn3c(=O)ccnc3s2)C(C)(C)C)c1`, for which the “% Inhibition” value is given as -8% and the Z score was found to be 1.42.
Take `Cc1ncsc1C(=O)N1CC(C(=O)O)CC(c2cnn(C)c2)C1` (stereo unspecified): the “% Inhibition” value was 1% and the Z score is reported as -0.23.
For `CC(C)C[C@H](NC(=O)Nc1ccc2scnc2c1)c1ncnn1C`, in that order: -3% and 0.59.
For `CN1CCc2cc(CNC3CCN(c4ccc(C(=O)N5CCC[C@H](CO)C5)cc4)CC3)ccc21`, in that order: -15% and 2.63.
For `Cc1csc2nc(=O)c(-c3ccccc3NC(=O)c3ccc4cc[nH]c4c3)nn12`, in that order: 2% and -0.27.
Regarding `COCCN1CC[C@H](Nc2cc(C(F)(F)F)nc(-c3cccnc3)n2)C1`, the “% Inhibition” value was -3% and the Z score worked out at 0.52.
For `C[C@@H](CCNc1cnccn1)N1CCN(C)CC1` the same measures were -4% and 0.77.
Take `CC(C)(C)C(=O)N1CCOc2ccc(Nc3nc4ccccc4s3)cc21`: the “% Inhibition” value is listed as -1% and the Z score is recorded as 0.26.
On to `OC1CCC(CNc2ccc3nnc(-c4ccsc4)n3n2)C1` (stereo unspecified), for which the “% Inhibition” value is on record as -11% and the Z score is given as 1.91.
For `Cc1cccc(N2CCC(NCC[C@H]3CCCCN3S(C)(=O)=O)CC2)c1C` the same measures were -3% and 0.72.
For `Cc1nnc(-c2cccc(-c3ccc(C(=O)N4CCNCC4)cc3)c2)s1` the same measures were -7% and 1.41.
As for `COc1cccc2c1CCN(C[C@@H](O)Cc1ccccc1)CC2`, the “% Inhibition” value was found to be 6% and the Z score was -1.23.
Turning to `CCS(=O)(=O)c1ccccc1NCc1cn(C)nc1C(F)(F)F`, the “% Inhibition” value was -16% and the Z score is listed as 2.76.
For `CN1CCN(CCCN(C)c2cnc3ccccc3n2)CC1`, in that order: 2% and -0.33.
Consider `OC[C@H]1CCCN(CCNc2ncnc3[nH]ccc23)C1`, for which the “% Inhibition” value is 0% and the Z score is reported as 0.07.
For `Cc1cc(N2CCC(N(C)Cc3ccc4nsnc4c3)CC2)nc(N)n1` the same measures were 18% and -3.91.
Consider `c1cc(-c2cc(C3CCN(C[C@H]4COCCO4)CC3)n[nH]2)ccn1`, for which the “% Inhibition” value is -1% and the Z score is given as 0.18.
For `COc1ccc(NC2(C(=O)N3CCC([C@H](C)N4CCN(C)CC4)CC3)CCCCC2)cc1`, in that order: -9% and 1.59.
For `O[C@@H](CNc1nc(-c2ccncc2)nc2ccccc12)COc1cccc(Cl)c1Cl`, the “% Inhibition” value is 0% and the Z score came out at 0.01.
Consider `CCc1ccc2nc(C)cc(C(=O)N(C)Cc3noc(C4CCC4)n3)c2c1`, for which the “% Inhibition” value was 1% and the Z score is -0.24.
For `CN1CCC(N2CCC(NC(=O)c3ccncn3)CC2)CC1` the same measures were -17% and 2.56.
For `Cc1cc(N2CC[C@H](NC(=O)c3cccnc3N(C)C)C2=O)n(C)n1` the same measures were -7% and 1.44.
As for `CC(C)Nc1ncc(C(=O)NCCN2CCC(c3ccccc3)CC2)cn1`, the “% Inhibition” value worked out at 2% and the Z score is -0.3.
For `CC(C)N1CC[C@H](Nc2ncnc3[nH]ncc23)C1`, in that order: -5% and 0.99.
For `Cc1cc(NC2CCCCC2)c2cc(Cl)ccc2n1` the same measures were 19% and -3.83.
Take `Cn1cc(-c2nc([C@@H]3CCCCCN3C(=O)c3cc(F)cc4[nH]cnc34)no2)cn1`: the “% Inhibition” value was -4% and the Z score is on record as 0.79.
Take `CCc1ccc(CS(=O)(=O)N2CCCc3occc3C2)cc1`: the “% Inhibition” value is -11% and the Z score came to 1.72.
Take `COc1ccc(-c2noc(CCc3nnc4ccc(N5CCN(C6CCCCC6)CC5)nn34)n2)cc1`: the “% Inhibition” value is on record as -3% and the Z score is on record as 0.44.
For `CC(C)(C)[C@H](Cn1ccnc1)NC(=O)c1ccc(F)c2cccnc12`, the “% Inhibition” value came out at 0% and the Z score is recorded as 0.07.
For `O=C(c1ccnc2[nH]nnc12)N1CCC[C@H](Nc2ccccc2)C1`, in that order: 3% and -0.67.
As for `CCN1CCN([C@@H](C)CNc2ncnc3sccc23)CC1`, the “% Inhibition” value was -8% and the Z score amounted to 1.53.
For `COc1cc(=O)n2c(c1C(=O)N1CCCC1)CCN(Cc1cccc3ncccc13)CC2` the same measures were -3% and 0.57.
Consider `OC1CCC(Nc2cnc3cc(F)c(F)cc3n2)CC1O` (stereo unspecified), for which the “% Inhibition” value was -4% and the Z score is 0.89.
For `CCNc1cc(C)nc(NCCNC(=O)c2cc(-n3cccn3)nc(C)n2)n1` the same measures were -1% and 0.15.
For `O=C([C@@H]1CC2(CCNCC2)CN1)N(Cc1cccnc1)C1CCNCC1` the same measures were 2% and -0.26.
For `CCc1cc(NC(=O)N[C@H](c2nccn2C)C(F)(F)F)no1` the same measures were -5% and 0.83.
Take `CC(C)N1CC[C@H](N2CCC(Oc3ncc(F)cn3)CC2)C1=O`: the “% Inhibition” value came to 5% and the Z score was -0.91.
For `CC[C@H]1CN(C(=O)c2cccc(-c3cncc(C(C)(C)O)c3)c2)CCN1`, the “% Inhibition” value is recorded as 2% and the Z score is -0.31.
For `Fc1cc2ncnc(N3CCC[C@H]3c3nc4cc(Cl)ccc4[nH]3)c2cc1F` the same measures were -4% and 0.9.
With `O=S(=O)(Nc1ccc(Nc2cc(-n3cccn3)ncn2)cc1)c1cccnc1`, the “% Inhibition” value worked out at 2% and the Z score is on record as -0.26.
For `O=C(NC1CCc2ncnn2C1)N1CC[C@@H](Oc2ccncc2)C1` (stereo partly specified), in that order: -9% and 1.52.
For `Nc1nc2c(c(N3CCC(O)(c4cccnc4)CC3)n1)CCNCC2` the same measures were 8% and -1.42.
For `CN(Cc1nccc(N)n1)[C@H]1CCCN(Cc2cccc3[nH]ccc23)CC1` the same measures were -5% and 1.12.
Take `CN1CCN(c2ccc(NCc3cc(C#N)cs3)cn2)CC1`: the “% Inhibition” value was -7% and the Z score is recorded as 1.29.
For `COc1ccc(-c2c(-c3ccccc3)ncn2C[C@H](O)c2cccnc2)c(F)c1` the same measures were 12% and -2.14.
For `Cn1ccc2cc(CN3CCC(Oc4ccncc4)CC3)ccc21` the same measures were 6% and -1.37.
For `CN1CCCCC1CN1CCN(C(=O)c2cnn(C3CCCNC3)c2)CC1` (stereo unspecified), the “% Inhibition” value is 0% and the Z score was determined as 0.01.
For `Cc1cc(C)c2nccc(N3CC(CO)C(CN4CCC(CO)CC4)C3)c2c1` (stereo unspecified) the same measures were 3% and -0.46.
For `OC1CCN(c2cc(N3CCCN(C4CCCC4)CC3)ncn2)CC1` the same measures were -10% and 1.67.
In the case of `CCN(CCN1CCOCC1)Cc1cnc(-c2ccco2)nc1`, the “% Inhibition” value is listed as -3% and the Z score worked out at 0.59.
For the compound `c1ccc2c(CCNc3nc(N4CCCC4)c4nn[nH]c4n3)c[nH]c2c1`, the “% Inhibition” value is on record as 5% and the Z score is on record as -0.9.
For `O=C(c1ccc(N2CCN[C@H](c3ccccc3)C2)nc1)N1CCCN(c2ncccn2)CC1`, in that order: -3% and 0.6.
In the case of `CN1CCN(CC2CCN(C(=O)c3cccc(-c4cncnc4)c3)CC2)CC1`, the “% Inhibition” value is -1% and the Z score stood at 0.12.
For `CCOC(=O)c1cncc(-c2ccc(NCC3CCOCC3)nc2)c1` the same measures were -3% and 0.43.
For the compound `COc1ccc(C(=O)O)nc1-c1ccc(CN(C)C)cc1`, the “% Inhibition” value came to 2% and the Z score is -0.47.
For the compound `COc1ccccc1CCC(=O)Oc1ccc(Cl)c2cccnc12`, the “% Inhibition” value is -11% and the Z score was determined as 1.88.
For `Cc1cc(C(=O)N[C@H]2CC[C@@H](CO)CC2)cc(NCC(F)(F)F)n1`, in that order: -5% and 0.69.
For `O=C(c1cc2occc2[nH]1)N1CCC[C@H](CN2CCOCC2)C1` the same measures were 1% and -0.15.
For `COc1ccccc1-c1ccc(-c2ccc(O)c(OC(F)(F)F)c2)nn1`, in that order: 10% and -2.07.
Regarding `CCN1CCC[C@@H]1CNC(=O)CCC1CCN(Cc2cc(O)c3ccccc3n2)CC1`, the “% Inhibition” value is given as 2% and the Z score was -0.31.
For `CC(=CCNC(=O)OC(C)(C)C)C(=O)NC(C)(C)CCCN(C)C` the same measures were -2% and 0.38.
For `O=C(NCc1nncn1C1CCCCC1)c1cncc(O)c1`, the “% Inhibition” value is -5% and the Z score is 0.96.
`Cc1cccc([C@@H](NC(=O)c2ccc(C#CC(C)(C)O)o2)C(=O)O)c1`: the “% Inhibition” value is on record as -2% and the Z score was determined as 0.35.
Consider `c1cc(CN2CCN(CC3CCCC3)CC2)c2cccnc2c1`, for which the “% Inhibition” value was -1% and the Z score came to 0.15.
For `COCCN1CC[C@H](CN2CCN(c3ccncc3C)CC2)C1`, the “% Inhibition” value was found to be 11% and the Z score was -1.86.
For `CC(C)CNC(=O)c1cc(NC(=O)CCc2ccn(C)n2)ccc1Cl`, in that order: -5% and 0.83.
With `Cc1cc(N2CCC(NCCCc3ncc[nH]3)CC2)nc(N2CCCC2)n1`, the “% Inhibition” value is -11% and the Z score came out at 1.85.
With `Cc1ccc(-c2csc(-n3nc(C)cc3NC(=O)C(=O)c3c[nH]c4ccccc34)n2)cc1`, the “% Inhibition” value was -4% and the Z score was found to be 0.6.
For the compound `O=C([C@@H]1CC[C@H](Nc2ccnc(N3CCOCC3)n2)C1)N1CCCC1`, the “% Inhibition” value is reported as -4% and the Z score was 0.63.
With `CC1CCCCN1CC1CCCN(CC2CCN(C(=O)OC(C)(C)C)C2)C1` (stereo unspecified), the “% Inhibition” value is recorded as -5% and the Z score came out at 0.98.
Consider `CN1CCC(CN2CCN(c3cc([C@H]4C[C@@H](O)C4)ncn3)CC2)CC1`, for which the “% Inhibition” value is -6% and the Z score was 0.92.
In the case of `COc1cc(Br)c2nc(N3CCN(C4CCCC4)CC3)nc(N)c2c1`, the “% Inhibition” value is listed as 1% and the Z score was -0.22.

(Values after ChEMBL document CHEMBL5308541, “MAIP: An Open-Source Tool to Enrich High-Throughput Screening Output and Identify Novel, Druglike Molecules with Antimalarial Activity” (ACS Med Chem Lett, 2023).)
